# PubChem BioAssay AID743279 (National Center for Advancing Translational Sciences (NCATS), 2014)
# Hit rate of the full screen: of about 360,000 compounds, about 17,000 (4.7%) were called active. Inconclusive results, whose numbers are uncertain, are shown with a selection of clear calls. Cut-off read from the data, not from the text of the source: active = activity change below about -50%; inconclusive = mostly about -30% to -49%; inactive = weaker than that.
# Test: qHTS for Inhibitors of Inflammasome Signaling: IL-1-beta AlphaLISA Primary Screen
# Conditions: THP-1 LPS/ATP IL-1B secretion, 16 h; at 57.5 µM, stronger effect = lower value
# In short: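 THP-1 cells pretreated 1 hr with compounds (up to 57.5 uM final), then stimulated with LPS (250 ng/mL final) plus ATP (1.25 mM final); secreted IL-1B measured by AlphaLISA after 16 hr, decreased signal indicating inhibition.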
# % is set by controls: 0 for no effect and ±100 for the full control effect.
row,Compound,activity change
1,Cc1ccc(Cl)cc1-c1cc(C(=O)NCc2ccco2)[nH]n1,inconclusive: -35.7%
2,COc1ccc(Cl)cc1C(=O)OCC(=O)N(CC(C)C)c1c(N)n(Cc2ccccc2)c(=O)[nH]c1=O,inconclusive: -30.7%
3,Cc1ccc(N2C(=O)C(Cl)=C(N3CCCCCC3)C2=O)c(C)c1,inconclusive: -33.3%
4,CSc1ccc(CNC(=O)C2Cc3cc(S(=O)(=O)N4CCCC4)ccc3N2C(C)=O)cc1 (stereo unspecified),inconclusive: -40.5%
5,Cn1cccc1Cc1nnc(SCC(=O)NC2CCCC2)n1CCc1ccccc1,inconclusive: -31.5%
6,Cc1ccccc1N/N=C/c1ccc(C#N)cc1,inconclusive: -46.9%
7,COc1cccc(/C=N\NC(C)=O)c1OC/C=C/c1ccccc1,inactive: 0%
8,COc1ccc(C2CC(O)(c3ccccc3)Oc3c(C)ccc(C)c32)cc1 (stereo unspecified),inconclusive: -33%
9,O=C(NCCCc1ccccc1)c1cccc(Br)c1,inconclusive: -31.4%
10,CC1CC(C)CN(Cc2nc(N)nc(Nc3ccc4ccccc4c3)n2)C1 (stereo unspecified),inconclusive: -42.9%
11,CC(C)c1ccc(-c2cc(C(=O)NN3CCN(C)CC3)c3ccccc3n2)cc1,inconclusive: -42.9%
12,C(/C=C/c1ccco1)=N/N1CCN(c2ccccc2)CC1,inconclusive: -49.5%
13,O=C1c2cc(F)ccc2OC2(CCNCC2)C12CC(c1ccccc1)=NO2 (stereo unspecified),active: -53.2%
14,CCOC(=O)/C=C(\C)Sc1cc(=O)oc2ccccc12,active: -52.5%
15,Cc1ccc(C)c2[nH]c(=O)c(CN(CCN3CCCC3)C(=O)Nc3ccc(F)cc3)cc12,inconclusive: -36.9%
16,CCOC(=O)c1c(S(=O)(=O)N(C)Cc2ccccc2)c(C)n(C)c1C,inactive: 0%
17,CCOC(=O)c1cc(-c2ccccc2)n[nH]1,inactive: 1.19%
18,CC(C)(C)c1ccc(OCC(O)CN2CCN(C(=O)c3ccccc3)CC2)cc1 (stereo unspecified),inactive: -6.45%
19,Cc1ccc(-n2ncc3c2CCCC3NC(=O)CSc2ccccn2)cc1C (stereo unspecified),inactive: 0%
20,CC(C)COC(=O)Cn1cnc2ccc(Br)cc2c1=O,inactive: 10.1%
21,CC(Nc1cccc([N+](=O)[O-])c1)C(=O)Nc1ccc(S(=O)(=O)N2CCCC2)cc1 (stereo unspecified),inconclusive: -43.7%

row,Compound,activity change
1,Cc1sc(NC(=O)c2ccc(=O)n(C)n2)nc1-c1ccccc1,inconclusive: -30.5%
2,CN(Cc1ccccc1)S(=O)(=O)c1ccc(NC(=O)C2CCCCC2C(=O)O)cc1 (stereo unspecified),inactive: -7.38%
3,Cc1ccc(C(=O)OCC(=O)Nc2ccccc2)cc1S(=O)(=O)N1CCCCC1,inactive: -4.31%
4,O=C(N/N=C1\CCCc2c1[nH]c1ccc(Cl)cc21)c1ccncc1,inconclusive: -35.1%
5,O=C(Nc1ccc2oc(-c3ccncc3)nc2c1)c1c(F)c(F)c(F)c(F)c1F,inconclusive: -32.5%
6,CCN(CC)S(=O)(=O)c1ccc(N2CCOCC2)c(NC(=O)c2cccc3ccccc23)c1,inconclusive: -32.2%
7,CCNC(=S)NNc1ccccc1,active: -95.1%
8,CCN(CC)C(=O)CSc1nc2c(sc(=S)n2-c2ccccc2)c(=O)n1-c1ccc(OC)cc1OC,inactive: -16.9%
9,COc1ccc(S(=O)(=O)Nc2ccc3c(c2)C(=O)N([C@H](C)CO)C[C@H](C)[C@@H](CN(C)C(=O)Nc2ccc(C(F)(F)F)cc2)OCCCC[C@H](C)O3)cc1,inconclusive: -32.3%
10,CC(C)COc1ccc(C(=O)OCCN2CCOCC2)cc1,inconclusive: -46%
11,CSc1ncc(Cl)c(C(=O)Nc2ccc(S(=O)(=O)N3CCOCC3)cc2)n1,inconclusive: -34.5%
12,O=C(CSc1nnc2ccc(-c3ccccc3)nn12)NCC1CCCO1 (stereo unspecified),inconclusive: -36.3%
13,Cc1cc(Nc2ccccc2)n(-c2nc3ccccc3[nH]2)n1,inconclusive: -30%
14,CC(C)C[C@H]1CNC(=S)N1CC1CCCN1C[C@H](Cc1ccccc1)N1C[C@H](Cc2ccccc2)N(CC2CCCCC2)C1=S (stereo partly specified),inconclusive: -40.1%
15,CCOC(=O)N1CCC(N(CCOC)C(=O)Nc2ccc(Cl)cc2)CC1,inactive: 0%
16,COc1cc(C2CC(=O)Oc3c(C(CCN4CCCC(C)C4)c4ccc(N(C)C)cc4)c(OC)cc(OC)c32)cc(OC)c1OC (stereo unspecified),inconclusive: -41.1%
17,COc1ccc(-n2ncc3c(N4CCN(Cc5ccccc5)CC4)ncnc32)cc1,active: -93.9%
18,CN1CCN(C(=O)CCN2C(=O)/C(=C/c3ccccc3Cl)SC2=S)CC1,active: -96.7%
19,CN(C)c1ccc(C(CNS(=O)(=O)c2ccc(F)c(F)c2)c2c[nH]c3ccccc23)cc1 (stereo unspecified),inconclusive: -40.2%
20,CCCCCCCCN1C(=O)[C@H](CC(=O)NCc2cccs2)C[C@@]2(C(=O)OC)CC(C)(C)CC=C12,inconclusive: -43.2%
